# Results as given in the supplement of paper PMC8728848.
# The other results are listed elsewhere or left out.
# B1: DC-ASPGR (Homo sapiens), CLC10_HUMAN (protein)
# chain: LDQNSKFQRDLVTLRTDFSNFTSNTVAEIQALTSQGSSLEETIASLKAEVEGFKQERQAVHSEMLLRVQQLVQDLKKLTCQVATLNNNASTEGTCCPVNWVEHQDSCYWFSHSGMSWAEAEKYCQLKNAHLVVINSREEQNFVQKYLGSAYTWMGLSDPEGAWKWVDGTDYATGFQNWKPGQPDDWQGHGLGGGEDCAHFHPDGRWNDDVCQRPYHWVCEAGLGQTSQESHVEPKSCDKTHTCPPCPAPELLGGPSVFLFPPKPKDTLMISRTPEVTCVVVDVSHEDPEVKFNWYVDGVEVHNAKTKPREEQFNSTYRVVSVLTVLHQDWLNGKEYKCKVSNKGLPSSIEKTISKAKGQPREPQVYTLPPSQEEMTKNQVSLTCLVKGFYPSDIAVEWESNGQPENNYKTTPPVLDSDGSFFLYSRLTVDKSRWQEGNVFSCSVMHEALHNHYTQK
# Experiments:
# Experiment in all cases: glycan array binding signal (z-score within array); higher = stronger binding
# Settings in all cases: glycan notation: IUPAC condensed, linker removed
# GlcNAc(b1-4)GlcNAc = target: GlcNAc(b1-4)GlcNAc
# Procedure, shortened: (§1)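 Negative Z-scores can be read as non-binding. The Z-score is calculated within each array and then averaged across arrays of one protein sequence at different concentrations or buffers and across linkers. Arrays, 3228 in all, were curated from the Consortium for Functional Glycomics database and kept only where the protein sequence was available.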
# [1] = target: GlcNAc(b1-4)GlcNAc(b1-4)GlcNAc
# Procedure, shortened: as §1
# [2] = target: GlcNAc(b1-4)GlcNAc(b1-4)GlcNAc(b1-4)GlcNAc(b1-4)GlcNAc
# Procedure, shortened: as §1
# [3] = target: GlcNAc(b1-4)GlcNAc(b1-4)GlcNAc(b1-4)GlcNAc(b1-4)GlcNAc(b1-4)GlcNAc
# Procedure, shortened: as §1
# [4] = target: GlcNAc(b1-4)[GlcNAc(b1-6)]GalNAc
# Procedure, shortened: as §1
# [5] = target: GlcNAc(b1-6)Gal(b1-4)GlcNAc
# Procedure, shortened: as §1
# GlcNAc(b1-6)GalNAc = target: GlcNAc(b1-6)GalNAc
# Procedure, shortened: as §1
# GlcNAc3Prop(b1-4)GlcNAc = target: GlcNAc3Prop(b1-4)GlcNAc
# Procedure, shortened: as §1
# [6] = target: GlcNAc6S(b1-3)Gal(b1-4)GlcNAc
# Procedure, shortened: as §1
# Kdn(a2-3)Gal(b1-3)GalNAc = target: Kdn(a2-3)Gal(b1-3)GalNAc
# Procedure, shortened: as §1
# Kdn(a2-3)Gal(b1-3)GlcNAc = target: Kdn(a2-3)Gal(b1-3)GlcNAc
# Procedure, shortened: as §1
# Kdn(a2-3)Gal(b1-4)Glc = target: Kdn(a2-3)Gal(b1-4)Glc
# Procedure, shortened: as §1
# Kdn(a2-3)Gal(b1-4)GlcNAc = target: Kdn(a2-3)Gal(b1-4)GlcNAc
# Procedure, shortened: as §1
# [7] = target: Kdn(a2-3)Gal(b1-4)[Fuc(a1-3)]GlcNAc
# Procedure, shortened: as §1
# Kdn(a2-6)Gal(b1-4)GlcNAc = target: Kdn(a2-6)Gal(b1-4)GlcNAc
# Procedure, shortened: as §1
# [8] = target: Man(a1-2)Man(a1-2)Man(a1-3)Man
# Procedure, shortened: as §1
# [9] = target: Man(a1-2)Man(a1-2)Man(a1-6)[Man(a1-3)]Man
# Procedure, shortened: as §1
# Man(a1-2)Man(a1-3)Man = target: Man(a1-2)Man(a1-3)Man
# Procedure, shortened: as §1
# [10] = target: Man(a1-2)Man(a1-3)[Man(a1-2)Man(a1-6)]Man
# Procedure, shortened: as §1
# [11] = target: Man(a1-2)Man(a1-3)[Man(a1-2)Man(a1-6)]Man(a1-6)[Man(a1-2)Man(a1-2)Man(a1-3)]Man
# Procedure, shortened: as §1
# [12] = target: Man(a1-2)Man(a1-3)[Man(a1-2)Man(a1-6)]Man(a1-6)[Man(a1-2)Man(a1-2)Man(a1-3)]Man(b1-4)GlcNAc(b1-4)GlcNAc
# Procedure, shortened: as §1
# [13] = target: Man(a1-2)Man(a1-3)[Man(a1-6)]Man(a1-6)[Man(a1-2)Man(a1-3)]Man(b1-4)GlcNAc(b1-4)GlcNAc
# Procedure, shortened: as §1
# [14] = target: Man(a1-2)Man(a1-6)[Man(a1-3)]Man(a1-6)[Man(a1-2)Man(a1-2)Man(a1-3)]Man
# Procedure, shortened: as §1
# [15] = target: Man(a1-2)Man(a1-6)[Man(a1-3)]Man(a1-6)[Man(a1-2)Man(a1-2)Man(a1-3)]Man(b1-4)GlcNAc(b1-4)GlcNAc
# Procedure, shortened: as §1
# Man(a1-3)[Man(a1-6)]Man = target: Man(a1-3)[Man(a1-6)]Man
# Procedure, shortened: as §1
# [16] = target: Man(a1-3)[Man(a1-6)]Man(a1-6)[Man(a1-2)Man(a1-3)]Man(b1-4)GlcNAc(b1-4)GlcNAc
# Procedure, shortened: as §1
# [17] = target: Man(a1-3)[Man(a1-6)]Man(a1-6)[Man(a1-3)]Man
# Procedure, shortened: as §1
# [18] = target: Man(a1-3)[Man(a1-6)]Man(a1-6)[Man(a1-3)]Man(b1-4)GlcNAc(b1-4)GlcNAc
# Procedure, shortened: as §1
# [19] = target: Man(a1-3)[Man(a1-6)]Man(b1-4)GlcNAc(b1-4)GlcNAc
# Procedure, shortened: as §1
# Man(a1-6)Man = target: Man(a1-6)Man
# Procedure, shortened: as §1
# Man(b1-4)GlcNAc = target: Man(b1-4)GlcNAc
# Procedure, shortened: as §1
# Neu5Ac(a2-3)Gal = target: Neu5Ac(a2-3)Gal
# Procedure, shortened: as §1
# [20] = target: Neu5Ac(a2-3)Gal(b1-3)GalNAc
# Procedure, shortened: as §1
# [21] = target: Neu5Ac(a2-3)Gal(b1-3)GalNAc(b1-3)Gal(a1-4)Gal(b1-4)Glc
# Procedure, shortened: as §1
# [22] = target: Neu5Ac(a2-3)Gal(b1-3)GalNAc(b1-3)Gal(b1-4)GlcNAc
# Procedure, shortened: as §1
# [23] = target: Neu5Ac(a2-3)Gal(b1-3)GalNAc(b1-4)[Neu5Ac(a2-3)]Gal(b1-4)Glc
# Procedure, shortened: as §1
# [24] = target: Neu5Ac(a2-3)Gal(b1-3)GalNAc6S
# Procedure, shortened: as §1
# [25] = target: Neu5Ac(a2-3)Gal(b1-3)GlcNAc
# Procedure, shortened: as §1
# [26] = target: Neu5Ac(a2-3)Gal(b1-3)GlcNAc(b1-3)Gal(b1-3)GlcNAc
# Procedure, shortened: as §1
# [27] = target: Neu5Ac(a2-3)Gal(b1-3)GlcNAc6S
# Procedure, shortened: as §1
# [28] = target: Neu5Ac(a2-3)Gal(b1-3)[Fuc(a1-4)]GlcNAc
# Procedure, shortened: as §1
# [29] = target: Neu5Ac(a2-3)Gal(b1-3)[Fuc(a1-4)]GlcNAc(b1-3)Gal(b1-3)[Fuc(a1-4)]GlcNAc
# Procedure, shortened: as §1
# [30] = target: Neu5Ac(a2-3)Gal(b1-3)[Fuc(a1-4)]GlcNAc(b1-3)Gal(b1-4)[Fuc(a1-3)]GlcNAc
# Procedure, shortened: as §1
# [31] = target: Neu5Ac(a2-3)Gal(b1-3)[Neu5Ac(a2-3)Gal(b1-4)]GlcNAc
# Procedure, shortened: as §1
# [32] = target: Neu5Ac(a2-3)Gal(b1-3)[Neu5Ac(a2-6)]GalNAc
# Procedure, shortened: as §1
# Neu5Ac(a2-3)Gal(b1-4)Glc = target: Neu5Ac(a2-3)Gal(b1-4)Glc
# Procedure, shortened: as §1
# [33] = target: Neu5Ac(a2-3)Gal(b1-4)GlcNAc
# Procedure, shortened: as §1
# [34] = target: Neu5Ac(a2-3)Gal(b1-4)GlcNAc(b1-2)Man(a1-3)[GlcNAc(b1-2)Man(b1-4)GlcNAc(b1-2)Man(a1-6)]Man(b1-4)GlcNAc(b1-4)GlcNAc
# Procedure, shortened: as §1
# [35] = target: Neu5Ac(a2-3)Gal(b1-4)GlcNAc(b1-2)Man(a1-3)[Neu5Ac(a2-6)Gal(b1-4)GlcNAc(b1-2)Man(a1-6)]Man(b1-4)GlcNAc(b1-4)GlcNAc
# Procedure, shortened: as §1
# [36] = target: Neu5Ac(a2-3)Gal(b1-4)GlcNAc(b1-3)Gal(b1-3)GlcNAc
# Procedure, shortened: as §1
# [37] = target: Neu5Ac(a2-3)Gal(b1-4)GlcNAc(b1-3)Gal(b1-4)GlcNAc
# Procedure, shortened: as §1
# [38] = target: Neu5Ac(a2-3)Gal(b1-4)GlcNAc(b1-3)Gal(b1-4)GlcNAc(b1-3)Gal(b1-4)GlcNAc
# Procedure, shortened: as §1
# [39] = target: Neu5Ac(a2-3)Gal(b1-4)GlcNAc(b1-3)Gal(b1-4)[Fuc(a1-3)]GlcNAc
# Procedure, shortened: as §1
# [40] = target: Neu5Ac(a2-3)Gal(b1-4)GlcNAc(b1-3)GalNAc
# Procedure, shortened: as §1
# [41] = target: Neu5Ac(a2-3)Gal(b1-4)GlcNAc(b1-6)[Gal(b1-3)]GalNAc
# Procedure, shortened: as §1
# [42] = target: Neu5Ac(a2-3)Gal(b1-4)GlcNAc(b1-6)[Neu5Ac(a2-3)Gal(b1-3)]GalNAc
# Procedure, shortened: as §1
# [43] = target: Neu5Ac(a2-3)Gal(b1-4)GlcNAc6S
# Procedure, shortened: as §1
binder,measurement,setting,value
B1,glycan array binding signal (z-score),GlcNAc(b1-4)GlcNAc,-0.21
same,glycan array binding signal (z-score),[1],-0.071
same,glycan array binding signal (z-score),[2],-0.149
same,glycan array binding signal (z-score),[3],-0.185
same,glycan array binding signal (z-score),[4],-0.194
same,glycan array binding signal (z-score),[5],-0.228
same,glycan array binding signal (z-score),GlcNAc(b1-6)GalNAc,4.28
same,glycan array binding signal (z-score),GlcNAc3Prop(b1-4)GlcNAc,-0.152
same,glycan array binding signal (z-score),[6],-0.165
same,glycan array binding signal (z-score),Kdn(a2-3)Gal(b1-3)GalNAc,-0.254
same,glycan array binding signal (z-score),Kdn(a2-3)Gal(b1-3)GlcNAc,-0.274
same,glycan array binding signal (z-score),Kdn(a2-3)Gal(b1-4)Glc,-0.158
same,glycan array binding signal (z-score),Kdn(a2-3)Gal(b1-4)GlcNAc,-0.292
same,glycan array binding signal (z-score),[7],-0.231
same,glycan array binding signal (z-score),Kdn(a2-6)Gal(b1-4)GlcNAc,-0.144
same,glycan array binding signal (z-score),[8],-0.239
same,glycan array binding signal (z-score),[9],-0.232
same,glycan array binding signal (z-score),Man(a1-2)Man(a1-3)Man,-0.166
same,glycan array binding signal (z-score),[10],-0.26
same,glycan array binding signal (z-score),[11],-0.265
same,glycan array binding signal (z-score),[12],-0.291
same,glycan array binding signal (z-score),[13],-0.204
same,glycan array binding signal (z-score),[14],-0.06
same,glycan array binding signal (z-score),[15],-0.246
same,glycan array binding signal (z-score),Man(a1-3)[Man(a1-6)]Man,-0.187
same,glycan array binding signal (z-score),[16],-0.242
same,glycan array binding signal (z-score),[17],-0.253
same,glycan array binding signal (z-score),[18],-0.292
same,glycan array binding signal (z-score),[19],-0.221
same,glycan array binding signal (z-score),Man(a1-6)Man,-0.174
same,glycan array binding signal (z-score),Man(b1-4)GlcNAc,-0.313
same,glycan array binding signal (z-score),Neu5Ac(a2-3)Gal,-0.279
same,glycan array binding signal (z-score),[20],-0.259
same,glycan array binding signal (z-score),[21],-0.165
same,glycan array binding signal (z-score),[22],-0.067
same,glycan array binding signal (z-score),[23],-0.161
same,glycan array binding signal (z-score),[24],-0.227
same,glycan array binding signal (z-score),[25],-0.274
same,glycan array binding signal (z-score),[26],-0.155
same,glycan array binding signal (z-score),[27],-0.24
same,glycan array binding signal (z-score),[28],-0.23
same,glycan array binding signal (z-score),[29],0.403
same,glycan array binding signal (z-score),[30],0.282
same,glycan array binding signal (z-score),[31],-0.172
same,glycan array binding signal (z-score),[32],0.1
same,glycan array binding signal (z-score),Neu5Ac(a2-3)Gal(b1-4)Glc,-0.185
same,glycan array binding signal (z-score),[33],-0.156
same,glycan array binding signal (z-score),[34],0.699
same,glycan array binding signal (z-score),[35],0.413
same,glycan array binding signal (z-score),[36],-0.106
same,glycan array binding signal (z-score),[37],-0.328
same,glycan array binding signal (z-score),[38],-0.292
same,glycan array binding signal (z-score),[39],-0.152
same,glycan array binding signal (z-score),[40],-0.18
same,glycan array binding signal (z-score),[41],-0.295
same,glycan array binding signal (z-score),[42],-0.165
same,glycan array binding signal (z-score),[43],-0.053
